Target: HCoV-NL63 nsp10-nsp16 complex (Human coronavirus NL63, UniProt P0C6X5)
Test: biochemical
Settings: substrate RNA N7mGpppAUUAAA 0.3 μM, 2 μM 3H-SAM

HCoV-NL63 nsp10-nsp16 complex, sequence (P0C6X5 6430-6729 limits assumed): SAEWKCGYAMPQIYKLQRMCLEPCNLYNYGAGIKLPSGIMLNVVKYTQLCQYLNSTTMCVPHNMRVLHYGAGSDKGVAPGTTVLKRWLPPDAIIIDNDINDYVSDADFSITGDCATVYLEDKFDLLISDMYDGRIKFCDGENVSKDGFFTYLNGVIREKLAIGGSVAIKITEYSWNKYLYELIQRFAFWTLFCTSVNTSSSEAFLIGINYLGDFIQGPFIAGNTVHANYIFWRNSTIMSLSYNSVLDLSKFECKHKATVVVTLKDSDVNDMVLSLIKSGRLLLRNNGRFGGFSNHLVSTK
HCoV-NL63 nsp10-nsp16 complex, sequence (P0C6X5 3909-4043 partner limits assumed): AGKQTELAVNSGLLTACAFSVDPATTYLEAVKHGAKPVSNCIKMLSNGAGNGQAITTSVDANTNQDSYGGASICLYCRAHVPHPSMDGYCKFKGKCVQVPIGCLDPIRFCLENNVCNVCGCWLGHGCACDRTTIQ

Nc1ncnc2c1ncn2[C@@H]1O[C@H](CSCC[C@H](N)C(=O)O)[C@@H](O)[C@H]1O [SAH, S-adenosylhomocysteine]
IC50: 80 ± 10 nM

Source: article PMC9908617 (Biochimica et Biophysica Acta. General Subjects, 2023)
